Test results reported in PMC9604039.
Where two headings read alike, the source gives them in different places. These are yes or no findings as the source states them, for the method shown. For part of these data: Binding seen in cells or lysates may run through a third protein. Some entries that bind do so weakly or less than the wild type. For part of these data: Tags and fused reporters may be left off the sequences shown.

Experiments:
[1] = target: T1, OsCIPK8 (rice (Oryza sativa)) (UniProt Q5JLD8); assay: two-hybrid; Matchmaker Gold system, Y2HGold strain; OsCBL in pGADT7, OsCIPK in pGBKT7; growth on DDO, then TDO and QDO media
T1 sequence: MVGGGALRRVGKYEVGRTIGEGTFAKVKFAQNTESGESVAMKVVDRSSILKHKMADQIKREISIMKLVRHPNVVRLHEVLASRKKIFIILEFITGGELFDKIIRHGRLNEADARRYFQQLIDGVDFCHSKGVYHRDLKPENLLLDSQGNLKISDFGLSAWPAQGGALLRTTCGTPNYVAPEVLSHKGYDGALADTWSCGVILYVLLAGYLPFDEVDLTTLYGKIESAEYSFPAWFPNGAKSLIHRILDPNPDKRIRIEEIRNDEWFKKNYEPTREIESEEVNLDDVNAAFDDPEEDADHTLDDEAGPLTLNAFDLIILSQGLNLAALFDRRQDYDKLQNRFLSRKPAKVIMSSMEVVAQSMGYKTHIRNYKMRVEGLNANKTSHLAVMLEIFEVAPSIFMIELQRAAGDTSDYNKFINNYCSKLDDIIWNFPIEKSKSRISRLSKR

[2] = target: T2, OsCIPK24 (rice (Oryza sativa)) (UniProt Q69Q47); assay: as above
T2 sequence: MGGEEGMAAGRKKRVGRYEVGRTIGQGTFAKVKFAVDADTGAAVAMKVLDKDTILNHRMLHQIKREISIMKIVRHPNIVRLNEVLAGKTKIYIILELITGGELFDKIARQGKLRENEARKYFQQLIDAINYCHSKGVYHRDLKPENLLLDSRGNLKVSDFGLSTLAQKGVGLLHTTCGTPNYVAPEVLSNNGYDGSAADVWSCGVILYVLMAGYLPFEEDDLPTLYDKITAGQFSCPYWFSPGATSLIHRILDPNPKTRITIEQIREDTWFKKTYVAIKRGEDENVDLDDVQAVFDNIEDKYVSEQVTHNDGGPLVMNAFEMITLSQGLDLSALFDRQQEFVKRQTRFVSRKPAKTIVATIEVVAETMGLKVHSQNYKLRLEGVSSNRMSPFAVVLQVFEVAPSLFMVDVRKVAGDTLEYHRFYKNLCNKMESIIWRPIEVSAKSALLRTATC

[3] = target: T3, OsCIPK17 (rice (Oryza sativa)) (UniProt Q75L42); assay: as above
T3 sequence: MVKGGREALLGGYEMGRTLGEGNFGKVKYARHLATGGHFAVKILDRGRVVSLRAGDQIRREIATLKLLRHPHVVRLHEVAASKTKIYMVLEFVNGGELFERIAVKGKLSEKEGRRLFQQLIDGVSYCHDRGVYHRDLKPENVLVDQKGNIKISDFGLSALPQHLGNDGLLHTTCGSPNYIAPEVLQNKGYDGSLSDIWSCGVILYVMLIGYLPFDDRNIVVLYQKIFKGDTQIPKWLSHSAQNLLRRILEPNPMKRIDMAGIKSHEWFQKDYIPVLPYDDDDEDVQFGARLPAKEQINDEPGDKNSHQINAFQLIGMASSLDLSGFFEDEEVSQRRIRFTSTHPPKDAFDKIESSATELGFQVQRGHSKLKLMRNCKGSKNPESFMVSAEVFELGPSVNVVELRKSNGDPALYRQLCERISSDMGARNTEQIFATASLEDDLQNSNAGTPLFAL

[4] = target: T4, OsCIPK23 (rice (Oryza sativa)) (UniProt Q6ZLP5); assay: as above
T4 sequence: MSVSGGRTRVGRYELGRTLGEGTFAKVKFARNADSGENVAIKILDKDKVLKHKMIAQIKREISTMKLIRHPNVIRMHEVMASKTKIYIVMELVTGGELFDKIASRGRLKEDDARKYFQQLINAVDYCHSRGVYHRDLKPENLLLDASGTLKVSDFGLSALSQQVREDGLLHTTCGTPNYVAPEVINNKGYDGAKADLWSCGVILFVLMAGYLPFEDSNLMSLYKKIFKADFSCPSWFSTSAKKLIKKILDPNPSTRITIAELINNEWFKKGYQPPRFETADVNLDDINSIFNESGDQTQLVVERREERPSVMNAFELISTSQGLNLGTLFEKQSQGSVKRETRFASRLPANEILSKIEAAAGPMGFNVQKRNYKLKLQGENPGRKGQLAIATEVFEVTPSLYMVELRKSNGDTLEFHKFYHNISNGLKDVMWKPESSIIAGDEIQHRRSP

[5] = target: T5, OsCIPK17 (BiFC fusion) (rice (Oryza sativa)) (UniProt Q75L42); assay: split reporter; BiFC with pSPYCE/pSPYNE fusions expressed in Nicotiana benthamiana leaves for three days; YFP fluorescence by confocal microscopy
T5 sequence: T3 sequence

[6] = target: T3, OsCIPK17 (rice (Oryza sativa)); assay: two-hybrid; Y2H of OsCIPK17 with predicted target proteins; for OsJAMYB AbA and 3-AT were added to QDO medium to inhibit self-activation; vectors of the partners not stated
[7] = target: T5, OsCIPK17 (BiFC fusion) (rice (Oryza sativa)); assay: split reporter; BiFC with pSPYCE/pSPYNE fusions expressed in Nicotiana benthamiana leaves for three days; YFP fluorescence by confocal microscopy; remark: listed apart in the source

OsCBL2 (from UniProt Q3HRP5 1-225) was tested, and the binding [1] was “binds”, the binding [2] was “no binding” and the binding [3] was “binds”. The binding [4] was “no binding”.

In the case of “OsCBL2 (BiFC fusion) (from UniProt Q3HRP5 1-225)”, the binding [5] is reported as “binds”.

B1: OsCBL8 (protein, UniProt Q3HRN9 1-213)
chain: MGCVSSKQFKRAAQHEDPAILAKETTFSVSEVEALFELFKKISHSIFRDGLIHKEEFQLALFRNSNKKNLFANRIFDLFDLKRNGVIDFGEFVRSLSIFHPETPLGDKIAFAFRLYDLRGTGCIEREELHEMVLALLNESDLFLSEEAVEQIVDQTFKQADLNDDGKIDPDEWKTFASKNPALLKNMTLPYLKDITMVFPSFILNSEVCEEEL
In the case of B1, the binding [1] is reported as “binds”, the binding [2] is reported as “binds” and the binding [3] is reported as “binds”. For the same molecule, the binding [4] was “no binding”.

B2: OsJAMYB (protein, UniProt Q2QZJ8 1-285)
chain: MEMVLQRTSHHPVPGEQQEAAAELSSAELRRGPWTVDEDLTLINYISDHGEGRWNALARAAGLKRTGKSCRLRWLNYLRPDVKRGNFTAEEQLLILDLHSRWGNRWSKIAQHLPGRTDNEIKNYWRTRVQKHAKQLNCDVNSKRFKDAMKYLWMPRLAERIHARAGAVDDSGDYSNNDLSCVSGVTMATVANCFDGSPSMVTSSSSDSFTSESQDLKKINLHVHGDDEKMNSEDWMQEVDHEFWSTEIQPNNEQFQDQQLNGWVQGFSEGLSETLWSLEDIWKMQ
B2 was tested, and the binding [6] was “binds”.

B3: OsJAMYB (BiFC fusion) (protein, UniProt Q2QZJ8 1-285)
chain: B2 chain
B3 was tested, and the binding [7] was “binds”.

B4: OsCBL8 (BiFC fusion) (protein, UniProt Q3HRN9 1-213)
chain: B1 chain
B4 was tested, and the binding [7] was “binds”.
